{"source": "PubChem BioAssay AID1347428", "about": "(National Center for Advancing Translational Sciences (NCATS), 2020)", "note": "The whole screen tested about 91,000 compounds, of which about 290 (0.32%) were called active. This list was built around the results that the source calls inconclusive (neither active nor inactive); the mix of calls is not that of the screen. The call rests on the fitted dose curve; in most records, active means well fitted inhibition curve with a large enough effect; inconclusive means small, poorly fitted or top-dose-only effect; inactive means no such curve, though single readings can be large or run the other way. A potency beside an inconclusive call is a rough fit, not a confirmed value. Potency means the concentration at half of the fitted maximal effect; tags describe the fitted curve by direction and shape."}
{"target": "Single-stranded DNA cytosine deaminase (Homo sapiens) (UniProt Q9GZX7)", "sequence (Q9GZX7 whole entry, looked up)": "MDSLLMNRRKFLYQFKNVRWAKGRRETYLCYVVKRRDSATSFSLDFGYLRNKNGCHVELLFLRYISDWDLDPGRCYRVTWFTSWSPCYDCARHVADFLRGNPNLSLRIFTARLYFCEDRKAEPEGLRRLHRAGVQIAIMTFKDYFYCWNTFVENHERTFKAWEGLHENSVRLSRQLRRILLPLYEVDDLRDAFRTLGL", "experiment": "Primary qHTS assay for inhibitors of Activation Induced Cytidine Deaminase (AID): AID signal; further: nearly all actives have a fitted effect of over 25% in size", "settings": "AID deamination FRET fluorescence, UDG-coupled, 4 h; series mostly up to 115 µM"}
{"smiles": "O=C(O)c1cc([N+](=O)[O-])ccc1NCCCc1ccccc1", "Potency": "inconclusive: 56.2 µM [inhibitor, partial curve, poor fit]"}
{"smiles": "CC1CCN(S(=O)(=O)c2ccc3nc(Nc4ccc(C#N)cc4)ccc3c2)CC1", "Potency": "inconclusive: 39.8 µM [inhibitor, single point]"}
{"smiles": "O=c1sc2c(s1)SC1CCCCCCCCCCC1S2", "note": "(configuration not stated)", "Potency": "inactive"}
{"smiles": "CCOC(=O)c1c(Nc2cc(C)cc(C)c2)nnc(-c2ccccc2)c1-c1ccccc1", "Potency": "inconclusive: 28.2 µM [inhibitor, partial curve, poor fit]"}
{"smiles": "COc1ccc(CNC(=O)c2csc(NC(C)C)n2)cc1", "Potency": "inactive"}
{"smiles": "CCCCCCCCCOc1ccc(C(=O)O)cc1", "Potency": "inconclusive: 89.1 µM [inhibitor, partial curve, poor fit]"}
{"smiles": "Cc1nn(CCCC(=O)Nc2cccc(F)c2)c(=O)c2c1sc1ccccc12", "Potency": "inconclusive: 31.6 µM [inhibitor, partial curve, poor fit]"}
{"smiles": "CCOc1ccc(CNC(=O)C2CCN(S(=O)(=O)N(CC(C)C)CC(C)C)CC2)cc1OC", "Potency": "inactive"}
{"smiles": "COc1ccc(Cl)cc1NC(=O)N1CC(=O)Nc2sc3c(c2C1c1ccccc1)CCCC3", "note": "(configuration not stated)", "Potency": "inconclusive: 39.8 µM [inhibitor, partial curve]"}
{"smiles": "COc1ccccc1C(=O)Nc1nc2nc(C)c(Cc3ccccc3)c(=O)n2[nH]1", "Potency": "active: 35.5 µM"}
{"smiles": "Cc1cc(O)c(-c2ccnc3cc(-c4ccccc4)nn23)cc1Cl", "Potency": "inactive"}
{"smiles": "CCc1ccc2c(c1)-c1ccccc1S(=O)(=O)N2CC(=O)N1CCC(C)CC1", "Potency": "inconclusive: 79.4 µM [inhibitor, single point]"}
{"smiles": "CCOc1ccccc1C(=O)N(Cc1cccs1)c1ccc(Cl)cc1", "Potency": "inconclusive: 50.1 µM [inhibitor, partial curve, poor fit]"}
{"smiles": "CN(C(=O)CSc1nc2ccccc2n1Cc1cccc(C(F)(F)F)c1)c1ccccc1", "Potency": "inconclusive: 15.8 µM [inhibitor, full curve, poor fit]"}
{"smiles": "O=C(Nc1ccon1)c1sc2cccc(Br)c2c1Cl", "Potency": "inactive"}
{"smiles": "COc1ccc(NC(=O)CSC2=Nc3ccccc3C3=NC(CCC(=O)NCCc4ccccc4)C(=O)N23)c(OC)c1", "note": "(configuration not stated)", "Potency": "inconclusive: 14.1 µM [inhibitor, full curve, poor fit]"}
{"smiles": "COc1cccc(CNC(=O)c2nn(C)c3c2CS(=O)(=O)c2ccccc2-3)c1", "Potency": "inconclusive: 89.1 µM [inhibitor, single point]"}
{"smiles": "CCOc1ccc(C(C)=O)cc1COc1ccc2c(CC)cc(=O)oc2c1", "Potency": "inactive"}
{"smiles": "CCCNC(=O)CNC(=O)CCc1ncc(-c2ccc(C)cc2)o1", "Potency": "inactive"}
{"smiles": "O=C(NCc1ccc(CN2CCCCC2)cc1)c1ccc(C(F)(F)F)nc1", "Potency": "inactive"}
{"smiles": "Cc1ccc(/C=N/Nc2cc(C)c3ccccc3n2)s1", "Potency": "inactive"}
{"smiles": "Cc1c(-c2cccc(Cl)c2)nc2ccccc2c1C(=O)NC1CCCCCCCCCCC1", "Potency": "inactive"}
{"smiles": "O=C(Nc1cccc(-c2nc3ccccc3o2)c1)c1cc([N+](=O)[O-])ccc1N1CCOCC1", "Potency": "inconclusive: 10 µM [inhibitor, full curve, poor fit]"}
{"smiles": "Cc1cc(C)cc(Nc2cc(C(=O)NCCCN(Cc3ccccc3)C(C)C)c3ccccc3n2)c1", "Potency": "inconclusive: 44.7 µM [inhibitor, single point]"}
{"smiles": "COC(=O)c1ccc(COC(=O)Cc2ccc(Cl)cc2Cl)cc1", "Potency": "inactive"}
{"smiles": "Cc1ccc(C)c(CN2C(=O)c3ccccc3S(=O)c3ccc(C(=O)N4CCC(C)CC4)cc32)c1", "note": "(configuration not stated)", "Potency": "inconclusive: 56.2 µM [inhibitor, partial curve, poor fit]"}
{"smiles": "Cc1ccc2c(c1)-c1nc3ccccc3cc1/C2=C\\c1cccnc1", "Potency": "inconclusive: 89.1 µM [inhibitor, partial curve]"}
{"smiles": "O=C(c1cc2ccc3cccnc3c2[nH]1)N1CCN(c2cccc(C(F)(F)F)c2)CC1", "Potency": "inconclusive: 15.8 µM [inhibitor, full curve, poor fit]"}
{"smiles": "Cc1cccc(NC(=S)NC2CCCC(C)C2C)c1", "note": "(configuration not stated)", "Potency": "inactive"}
{"smiles": "CCN(CC)S(=O)(=O)c1nnc(NC(=O)c2ccccc2Cl)s1", "Potency": "inconclusive: 35.5 µM [inhibitor, partial curve, poor fit]"}
{"smiles": "Cc1ccc(Cn2c(CN3CCN(c4ccccc4)CC3)nc3c2c(=O)n(C)c(=O)n3C)cc1", "Potency": "inconclusive: 39.8 µM [inhibitor, partial curve, poor fit]"}
{"smiles": "C/C=C/C(=O)OC(C)C(=O)Nc1ccccc1SC", "note": "(configuration not stated)", "Potency": "inactive"}
{"smiles": "Cc1nn2c(C)c(C(=O)N3CCN(c4ccccc4)CC3)cnc2c1-c1ccccc1", "Potency": "inconclusive: 20 µM [inhibitor, full curve]"}
{"smiles": "CCCCCCCCCc1ccc(C(=O)O)cc1", "Potency": "inconclusive: 79.4 µM [inhibitor, partial curve]"}
{"smiles": "COc1cc(NC(=O)CN2C(=O)COc3cc(C(C)(C)C)ccc32)cc(OC)c1", "Potency": "inactive"}
{"smiles": "COc1ccccc1C(=O)Nc1nc2nc(-c3ccccc3)cc(=O)n2[nH]1", "Potency": "inconclusive: 50.1 µM [inhibitor, partial curve, poor fit]"}
{"smiles": "CCCCc1nc(CN2CCN(c3cccc(F)c3C#N)CC2)no1", "Potency": "inconclusive: 3.55 µM [inhibitor, full curve, poor fit]"}
{"smiles": "COc1cc(NC(=O)CC(c2ccc(C)cc2)N2Cc3ccccc3C2=O)cc(OC)c1", "note": "(configuration not stated)", "Potency": "active: 44.7 µM"}
{"smiles": "Cc1cccc(CNC(=O)c2oc3c(c2C)-c2nn(Cc4cccc(Cl)c4)cc2CC3)c1", "Potency": "inconclusive: 50.1 µM [inhibitor, partial curve, poor fit]"}
{"smiles": "COc1ccc(NC(=O)Cn2c(=O)oc3cc(S(=O)(=O)NCc4ccccc4)ccc32)c(OC)c1", "Potency": "inactive"}
{"smiles": "O=c1oc2ccc(Br)cc2cc1S(=O)(=O)N1CCCCC1", "Potency": "inactive"}
{"smiles": "Cc1ccc(-c2nc3nc(C)cc(C)n3c2Nc2ccc3c(c2)OCCO3)cc1", "Potency": "inconclusive: 15.8 µM [inhibitor, full curve, poor fit]"}
{"smiles": "CC(C)c1cnc2c(c1SCc1cccc(F)c1)c(=O)n(C)c(=O)n2C", "Potency": "inconclusive: 35.5 µM [inhibitor, full curve]"}
{"smiles": "O=C(NCC(c1cccs1)S(=O)(=O)c1cccs1)c1ccc(Cl)cc1", "note": "(configuration not stated)", "Potency": "inactive"}
{"smiles": "CCc1ccc(-n2c(N3CCN(c4cccc(Cl)c4)CC3)nc3ccccc3c2=O)cc1", "Potency": "inconclusive: 25.1 µM [inhibitor, partial curve, poor fit]"}
{"smiles": "Cc1nn(-c2ccc(F)cc2)c(-n2cccc2)c1C(=O)NCCCN1CCN(c2cccc(Cl)c2)CC1", "Potency": "inconclusive: 14.1 µM [inhibitor, full curve, poor fit]"}
{"smiles": "COCCn1cnc2c1c(=O)n(CC(=O)OCc1cc(C)cc(C)c1)c(=O)n2Cc1ccccc1", "Potency": "inactive"}
{"smiles": "COc1cc(C2CC(=O)Nc3ccsc32)ccc1OCC(N)=O", "note": "(configuration not stated)", "Potency": "inactive"}
{"smiles": "CSc1ncc(Cl)c(C(=O)Nc2ccc(S(=O)(=O)N3CCCC(C)C3)cc2)n1", "note": "(configuration not stated)", "Potency": "inconclusive: 25.1 µM [inhibitor, single point]"}
{"smiles": "COc1cc(NC(=O)C2CCCN(S(=O)(=O)c3ccc4c(c3)CCCC(=O)N4)C2)cc(OC)c1", "note": "(configuration not stated)", "Potency": "inactive"}
{"smiles": "CCCN(CCC)c1nc(-c2ccccc2F)nc2ccccc12", "Potency": "inconclusive: 70.8 µM [inhibitor, single point]"}
{"smiles": "CCOC(=O)N1CCc2c(sc(NCc3ccc(N(C)C)cc3)c2C(=O)Nc2ccc(OC)cc2)C1", "Potency": "active: 50.1 µM"}
{"smiles": "CSc1ccc(CCNC(=O)c2ccc(CS(=O)(=O)c3ccc(Br)cc3)o2)cc1", "Potency": "inconclusive: 8.91 µM [inhibitor, partial curve, poor fit]"}
{"smiles": "Cc1cccc(N2CC(C)Cn3c2nc2c3c(=O)n(CC(=O)O)c(=O)n2C)c1", "note": "(configuration not stated)", "Potency": "inconclusive: 100 µM [inhibitor, single point]"}
{"smiles": "CC(C)c1ccc2oc(-c3ccc(NC(=O)c4ccc([N+](=O)[O-])o4)cc3)nc2c1", "Potency": "inactive"}
{"smiles": "COc1ccc(CCNC(=S)NNC(=S)NCC2CCCO2)cc1OC", "note": "(configuration not stated)", "Potency": "inactive"}
{"smiles": "COc1ccc(-c2ocnc2C(=O)Nc2cc(F)ccc2F)cc1OC", "Potency": "inactive"}
{"smiles": "CCCCOC(=O)c1ccc(NC(=O)c2ccc3c(c2)CCN3S(=O)(=O)c2ccccc2)cc1", "Potency": "inconclusive: 3.16 µM [inhibitor, full curve, poor fit]"}
{"smiles": "O=C(Nc1ccc(F)cc1F)c1ccc(-c2ccccc2)s1", "Potency": "inactive"}
{"smiles": "CCc1ccccc1NC(=O)CSc1nc2c(oc3ccccc32)c(=O)n1-c1ccccc1", "Potency": "inconclusive: 22.4 µM [inhibitor, partial curve, poor fit]"}
{"smiles": "COc1ccc(NC(=O)CSc2nc3ccsc3c(=O)n2-c2ccccc2)cc1", "Potency": "inactive"}
{"smiles": "CCOc1ccc(NC(=O)CSc2nc3nc(C)c(Cc4ccccc4)c(C)n3n2)cc1", "Potency": "inconclusive: 56.2 µM [inhibitor, partial curve, poor fit]"}
{"smiles": "CCC1CCCCN1CCCNC(=O)c1ccc2c(c1)N(Cc1cccc(C)c1)C(=O)c1ccccc1S2(=O)=O", "note": "(configuration not stated)", "Potency": "inconclusive: 50.1 µM [inhibitor, partial curve, poor fit]"}
{"smiles": "CCC1CCCCN1CCCNC(=O)c1cc2c(Cl)nc3ccc(C)cc3c2s1", "note": "(configuration not stated)", "Potency": "inconclusive: 44.7 µM [inhibitor, partial curve, poor fit]"}
{"smiles": "Cc1ccc(C)c(N2CCN(C(=O)C(C)n3nc(C)c4sc5ccccc5c4c3=O)CC2)c1", "note": "(configuration not stated)", "Potency": "inconclusive: 2.82 µM [inhibitor, full curve, poor fit]"}
{"smiles": "CSc1ccc(CCNC(=O)c2sc3ncccc3c2-n2cccc2)cc1", "Potency": "inconclusive: 28.2 µM [inhibitor, full curve, poor fit]"}
{"smiles": "CCOc1ccc(Nc2c(S(=O)(=O)c3ccc(C)cc3)cnc3ccc(OC)cc23)cc1", "Potency": "inconclusive: 3.16 µM [inhibitor, full curve, poor fit]"}
